Hit rate of the full screen: of about 200,000 compounds, about 4,500 (2.2%) were called active. Inconclusive results, whose numbers are uncertain, are shown with a selection of clear calls. The call rests on the fitted dose curve; in most records, active means well fitted inhibition curve with a large enough effect; inconclusive means small, poorly fitted or top-dose-only effect, or effect the other way; inactive means flat fitted curve, though single readings scatter. A potency beside an inconclusive call is a rough fit, not a confirmed value.
biological target: Cruzipain (Trypanosoma cruzi) (UniProt P25779); assay: qHTS Assay for Promiscuous and Specific Inhibitors of Cruzain (without detergent); details: purified cruzain, Z-FR-AMC fluorescence, no detergent; further: nearly all actives have a fitted effect of over 40% in size;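 on max response, negative = inhibition: plate controls were enzyme without inhibitor for no effect and buffer without enzyme for full effect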
In short: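 Purified cruzain at 1.5 nM, pre-incubated 15 min with compound at room temperature in 100 mM sodium acetate pH 5.5, 5 mM DTT, 0.00005% Triton X-100. Reaction started with 2 uM Z-FR-AMC; AMC fluorescence increase over 60 s gives rate.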
Potency means the concentration at half of the fitted maximal effect; tags describe the fitted curve by direction and shape.

Chain of UniProt P25779 (P25779 whole entry, looked up): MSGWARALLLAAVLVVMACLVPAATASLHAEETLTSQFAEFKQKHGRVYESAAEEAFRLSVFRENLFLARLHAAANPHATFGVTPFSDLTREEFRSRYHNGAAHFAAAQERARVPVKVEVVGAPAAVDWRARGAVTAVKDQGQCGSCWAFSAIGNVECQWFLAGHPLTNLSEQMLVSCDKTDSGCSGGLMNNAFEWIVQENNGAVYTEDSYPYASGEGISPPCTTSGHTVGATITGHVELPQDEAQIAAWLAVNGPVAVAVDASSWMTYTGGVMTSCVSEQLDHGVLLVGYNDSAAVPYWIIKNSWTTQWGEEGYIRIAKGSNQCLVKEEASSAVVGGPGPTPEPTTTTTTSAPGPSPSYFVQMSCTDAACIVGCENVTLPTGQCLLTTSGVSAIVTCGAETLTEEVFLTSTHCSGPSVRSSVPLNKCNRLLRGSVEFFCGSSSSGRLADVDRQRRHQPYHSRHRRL

Row | SMILES | max response, negative = inhibition | Potency
1 | CCN(CC)C(=O)Cn1c(=O)n(CCCCCC(=O)NCc2ccc(C)cc2)c(=O)c2sccc21 | inactive: -2.38% | 
2 | Cc1nn2c(-c3cccc(NC(=O)c4ccco4)c3)nnc2c2ccccc12 |  | inconclusive: 39.8 µM [activator, single point]
3 | Cc1ccccc1C1C(C#N)=C2N=C(N)c3c(sc4c3CCCCC4)N2C2=C1C(=O)CCC2 (stereo not given) |  | inconclusive: 39.8 µM [inhibitor, single point]
4 | CC(O)CNc1nc2ccccc2n1CC(=O)NCCc1ccc(Cl)cc1 (stereo not given) | inactive: -6.29% | 
5 | CCC(C)(C)NC(=O)CN(C(=O)CCC(=O)Nc1ccccn1)c1ccc(F)c(Cl)c1 |  | inconclusive: 39.8 µM [activator, single point]
6 | CCc1ccc(-c2cc(C)no2)cc1S(=O)(=O)NCc1ccc(OC)cc1 | inactive: -6.75% | 
7 | COc1ccc2cc3cc(C(=O)NCCN4CCc5ccccc5C4)oc3nc2c1 |  | inconclusive: 39.8 µM [inhibitor, single point]
8 | O=C(c1cccs1)[C@@H]1[C@@H]2C(=O)N(Cc3ccc4c(c3)OCO4)C(=O)[C@@H]2C2c3ccccc3C=CN21 (stereo not given in full) |  | active: 25.1 µM
9 | Cc1cc(C)n(C(=O)CNC(=O)C(c2ccccc2)c2ccccc2)n1 |  | inconclusive: 39.8 µM [inhibitor, single point]
10 | CCCC1=C/C(=C/c2ccc(-c3ccccc3OC)o2)C(=O)O1 |  | inconclusive: 20 µM [inhibitor, partial curve]
11 | COc1cc(OC)c(NC2(c3ccccc3)C(=O)c3ccccc3C2=O)cc1Cl | inactive: -2.49% | 
12 | Cc1cc(OCCCC(=O)NCCN2C(=O)S/C(=C\c3cccnc3)C2=O)ccc1Cl |  | inconclusive: 31.6 µM [activator, single point]
13 | CCOc1ccc(C(=O)NC(=S)N(Cc2ccccc2)Cc2ccccc2)cc1 |  | inconclusive: 31.6 µM [inhibitor, single point]
14 | Cc1cc(NC(=O)c2noc3c2CCc2ccccc2-3)no1 |  | inconclusive: 39.8 µM [inhibitor, single point]
15 | CCOc1ccccc1CNC(=O)c1cc2n(n1)CCCN(Cc1ccc(C)cc1)C2=O | inactive: 9.77% | 
16 | O=[N+]([O-])c1ccc(N2N=C(c3ccco3)CC2c2ccccc2)cc1 (stereo not given) |  | active: 12.6 µM
17 | COc1ccccc1N1CCN(C(=O)c2ccc(S(=O)(=O)N3CCCCC3)cc2)CC1 |  | inconclusive: 31.6 µM [activator, single point]
18 | O=C1CC(c2cccc(O)c2)c2c(nc(SCc3ccccc3F)[nH]c2=O)N1 (stereo not given) | inactive: -2.93% | 
19 | CCOC(=O)c1cc(CC)sc1NC(=O)COc1ccc2c(C)cc(=O)oc2c1 |  | inconclusive: 12.6 µM [activator, partial curve, poor fit]
20 | COc1cc(/C=C2\C(=O)N(CCC#N)N=C2C)c(Br)cc1OC(C)C |  | inconclusive: 31.6 µM [activator, single point]

Row | SMILES | max response, negative = inhibition | Potency
21 | CCOC(=O)c1c(NC(=S)NC(=O)c2ccc(Cn3cc(Cl)cn3)o2)sc2c1CCC(C)C2 (stereo not given) |  | inconclusive: 2 µM [inhibitor, partial curve]
22 | Cc1cc(C(=O)CSc2nnc(-c3ccco3)o2)c(C)n1Cc1ccco1 | inactive: 16.2% | 
23 | Cc1ccc(C)n1N1C(=O)/C(=C\c2ccc(Cl)cc2)SC1=S |  | inconclusive: 31.6 µM [inhibitor, single point]
24 | O=C(Nc1c(C(=O)Nc2ccc(F)cc2)oc2ccccc12)c1cc2ccccc2o1 |  | active: 12.6 µM
25 | CCN(C#N)c1nc(NC(C)C)nc(NC(C)C)n1 | inactive: 7.02% | 
26 | COC(=O)[C@@]1(Cc2ccccc2)[C@H]2c3cc(C(=O)N4CCCC4)n(CCc4ccccn4)c3C[C@H]2CN1C(=O)c1ccccc1 |  | inconclusive: 25.1 µM [activator, single point]
27 | COC(=O)[C@@]1(Cc2ccc(OC)cc2)[C@H]2c3cc(C(=O)N4CCCC4)n(Cc4ccc(C)c(F)c4F)c3C[C@H]2CN1C(=O)c1ccccc1 |  | inconclusive: 39.8 µM [activator, single point]
28 | O=C(COc1ccc(Br)cc1)NNC(=S)NC(=O)c1ccccc1[N+](=O)[O-] |  | inconclusive: 0.158 µM [activator, single point]
29 | COc1cc(NC(=O)c2cc3nc(C)cc(C)n3n2)c(OC)cc1Cl |  | inconclusive: 20 µM [activator, partial curve]
30 | O=C(CCn1c(=O)c2ccccc2n(CC(=O)NC2CCCC2)c1=O)NCCc1ccc(Cl)cc1 |  | inconclusive: 39.8 µM [inhibitor, single point]
31 | COC(=O)c1sc2ccccc2c1NC(=O)c1ccc(S(=O)(=O)N2CCC(C)CC2)cc1 |  | inconclusive: 39.8 µM [inhibitor, single point]
32 | Cc1ccc2sc3ccc(NC(=O)c4ccccc4Cl)cc3c(=O)c2c1 |  | active: 25.1 µM
33 | COc1ccc(NS(=O)(=O)c2ccc3c(c2)CCN3C(=O)CCC(=O)O)cc1Cl |  | inconclusive: 39.8 µM [activator, single point]
34 | CC(C)CCCC(C)C1CCC2C3=CC[C@@H]4CC(O)CC[C@@]4(C)C3CC[C@]21C (stereo not given in full) | inactive: 22.5% | 
35 | CC1CN(CC(=O)Nc2cccc(C(=O)Nc3cccc(C(F)(F)F)c3)c2)CC(C)O1 (stereo not given) |  | inconclusive: 31.6 µM [activator, single point]
36 | COc1ccc(-c2csc3nc(-c4cccnc4)nc(N4CCC(C(N)=O)CC4)c23)cc1OC |  | inconclusive: 20 µM [activator, partial curve]
37 | O=c1oc2cc(O)ccc2cc1-c1nc2c(s1)CCc1ccccc1-2 |  | inconclusive: 20 µM [inhibitor, single point]
38 | COc1ccc(-c2c3c(=O)n(C)c(=O)n(C)c3c3c(-c4cccc(C)c4)nc4ccccc4n23)cc1 |  | inconclusive: 6.31 µM [activator, single point]
39 | Cc1ccc(CN(C(=O)COc2ccc(Cl)c(C)c2)C2CCS(=O)(=O)C2)o1 (stereo not given) |  | inconclusive: 39.8 µM [activator, single point]
40 | CCOC(=O)CSc1nc2ccccc2n1CC(=O)N(C(C)C)C(C)C | inactive: -8.38% | 

Source: PubChem BioAssay AID1476 (National Center for Advancing Translational Sciences (NCATS), 2009)
